Among the data in PubChem BioAssay AID463173 (ICCB-Longwood Screening Facility, Harvard Medical School, 2010) are survival values, retold here.

Each structure is given as a SMILES string. Among all 52,000 compounds or so, about 4,300 (8.3%) were called active. No stated cut-off is given here; in the data, active means survival mostly below about 52% (no sharp cut-off); inactive means mostly above about 56%. Some of the results follow.

This experiment has as its system DeltatarO mutant. The experiment is described as follows: S. aureus survival, RN4220 and DeltatarO strains – OD600, teichoic acid synthesis inhibitors, primary screen (AID 463173). The following applies: S. aureus RN4220 wild type/DeltatarO growth, OD600, 18 h, hits give low values, screened at 18.75 µg/mL (by protocol).
As to `O=C(Nc1ccc(Cl)cc1)c1ccc2c(c1)N(Cc1ccccc1)CCS2`, the survival is inactive: 93%.

In the case of `CCOC(=O)c1cc2c(=O)n3ccccc3nc2n(CCCOC)c1=NC(=O)c1cc2ccccc2o1`, the survival was inactive: 65%.

As for `COc1ccc(NC(=O)Cn2c(=O)n(Cc3ccccc3Cl)c(=O)c3cc(OC)c(OC)cc32)cc1`, the survival was inactive: 83%.

In the case of `COc1cccc(-n2c(C)nc3c(cnn3-c3ccc(C)c(C)c3)c2=O)c1`, the survival is active: 50%.

Turning to `Cc1ccc(Cn2c(C)c3cnn(CC(=O)N4CCN(c5cc(C)ccc5C)CC4)c(=O)c3c2C)cc1`, the survival was inactive: 51%.

Regarding `Cc1ccc(CCNC(=O)c2cc3ccccn3n2)cc1`, the survival was inactive: 93%.

In the case of `O=c1oc2ccc(Cl)cc2cc1-c1nc(-c2cccs2)no1`, the survival is inactive: 100%.

On to `Cn1c(=Nc2cccc(O)c2)sc2ccccc21`, for which the survival was inactive: 83%.

In the case of `Cc1ccc(C(=O)CC2(O)C(=O)N(CCc3ccccc3)c3ccc(Br)cc32)cc1` (stereo unspecified), the survival is inactive: 39%.

As to `CC(=O)Nc1ccc(S(=O)(=O)NC2(C(F)(F)F)C(=O)Nc3c2c(=O)[nH]c(=O)n3-c2ccc(C)cc2)cc1` (stereo unspecified), the survival is inactive: 76%.

Turning to `CCc1cccc(NC(=O)CN2C(=O)COc3ccc(S(=O)(=O)N4CCC(C)CC4)cc32)c1`, the survival is inactive: 80%.

Take `CCOCCCNC(=O)C(c1ccc(OC)cc1)N(Cc1cccs1)C(=O)CNC(C)=O` (stereo unspecified): the survival was inactive: 65%.

`COc1cccc(C(=O)NCc2cn3cccc(C)c3n2)c1`: the survival was inactive: 90%.

Turning to `Cn1c(=O)n(C)c2cc(CNCc3ccccc3Cl)ccc21`, the survival is inactive: 81%.

Consider `O=C(c1ccccc1)N(Cc1ccco1)c1nc(-c2ccccc2)cs1`, for which the survival is inactive: 78%.

For the molecule `O=C(c1ccc(Cl)cc1)n1nc(-c2ccccc2)nc1NCc1ccco1`, the survival was active: 29%.

As for `COC(=O)c1c(NC(=O)CS(=O)(=O)c2ccc(C)cc2)sc2c1CCCCC2`, the survival is inactive: 76%.

On to `CCOc1cc2[nH]c(=O)n(CCC(=O)N3CCN(c4ccccc4)CC3)c(=O)c2cc1OCC`, for which the survival is inactive: 78%.

In the case of `Cc1ccc(-n2nc3c(N4CCCC(C(=O)NCc5ccccc5C)C4)nnc(C)c3c2C)cc1` (stereo unspecified), the survival was inactive: 78%.

Consider `COc1ccccc1C(=O)OCc1cc(=O)n2c(C)csc2n1`, for which the survival is inactive: 72%.

As to `CCSc1ncc(Cl)c(C(=O)Nc2cc(C)ccc2C)n1`, the survival was inactive: 85%.

As for `O=C(CNS(=O)(=O)c1ccccc1)NCC1CCCO1` (stereo unspecified), the survival is inactive: 89%.

In the case of `CCCOC(=O)c1c(-c2ccccc2)c(-c2ccccc2)nn(C)c1=O`, the survival was inactive: 60%.

For the molecule `CC(=O)c1c(C)n(-c2cccc(Cl)c2)c2ccc(OC(=O)c3ccccc3)cc12`, the survival is inactive: 77%.

Consider `COc1cccc(NC(=O)CSc2nc(=O)[nH]c3c2CCCC3)c1`, for which the survival is inactive: 82%.

As for `COc1ccc(CCNC(=O)CN2C3CCCC2CC(=O)NC3)cc1OC` (stereo unspecified), the survival is inactive: 81%.

`N#C/C(=C(/O)CN1C(=O)c2ccccc2C1=O)c1nc2ccccc2[nH]1`: the survival is inactive: 76%.

Turning to `CCOc1ccc(S(=O)(=O)Nc2cc3c(C(=O)OCc4ccccc4)c(C)oc3c3ccccc23)cc1`, the survival was inactive: 94%.

For `CCOc1ccc(NC(=O)c2nn(C)c3c2COc2ccccc2-3)cc1`, the survival was inactive: 69%.

Consider `CC(C)c1ccc(NC(=O)CSC2=Nc3ccccc3C3=NC(CCC(=O)NCc4cccs4)C(=O)N23)cc1` (stereo unspecified), for which the survival is inactive: 73%.

With `COc1ccc2c(c1)c1c(c(=O)n(-c3cc(Cl)ccc3C)c(=O)n1Cc1ccc(F)cc1)n2C`, the survival was inactive: 102%.

As to `Cc1cc(C)nc(NCC(O)CNc2ccccc2Cl)n1` (stereo unspecified), the survival is inactive: 80%.

On to `Cc1ccc(NC(=O)N2CCN3CCCCC3C2)cc1C` (stereo unspecified), for which the survival is inactive: 80%.

Take `Cc1c(Cl)cccc1-n1ncc(C(=O)NC2CCCC2)c1C1CCN(C(=O)OC(C)(C)C)CC1`: the survival is inactive: 102%.

`Cc1oc2ncn(C)c(=O)c2c1C(=O)N(C)c1ccccc1F`: the survival is inactive: 87%.

Regarding `COc1ccc(NC(=O)CSC2=Nc3ccccc3C3=NC(CCC(=O)NCCc4ccccc4)C(=O)N23)cc1` (stereo unspecified), the survival is inactive: 87%.

As for `CC(C)(C)OC(=O)N1CCC(c2c(C(=O)N3CCN(C4CCCCC4)CC3)cnn2-c2cccc(Cl)c2)CC1`, the survival is inactive: 73%.

Take `COC(=O)c1ccc(NS(=O)(=O)c2ccc3[nH]c4c(c3c2)CCCCC4)cc1`: the survival is inactive: 91%.

On to `CC(=O)N1CCCc2cc(S(=O)(=O)N3CCC(C(=O)NC4CCCCC4)CC3)ccc21`, for which the survival was inactive: 94%.

Take `CCOC(=O)N1CCC(NC(=O)c2cnn(-c3cccc(C)c3)c2-n2cccc2)CC1`: the survival was inactive: 85%.

With `O=C1C2=C(Nc3ccccc3SC2c2c(F)cccc2Cl)c2ccccc21` (stereo unspecified), the survival was inactive: 94%.

On to `COc1ccc(NC(=O)Nc2cn(CC(C)C)c(=O)c3ccccc23)c(OC)c1`, for which the survival is inactive: 91%.

On to `O=C(NCCc1ccc(F)cc1)C(=O)NCC(c1cccs1)S(=O)(=O)c1cccs1` (stereo unspecified), for which the survival is inactive: 113%.

In the case of `COc1ccc(-c2cc(-c3ccccc3)nc3c2COc2ccc(Cl)cc2-3)cc1`, the survival was inactive: 87%.

Regarding `CCC(C)C12CN(C(C)=O)CC(C)(CN(C(C)=O)C1)C2=O` (stereo unspecified), the survival was inactive: 108%.

`Cc1cccc(OCCn2nnc3sc4c(c3c2=O)CCCC4)c1`: the survival was inactive: 65%.

As to `CC(C)c1ccc(NS(=O)(=O)c2ccc3[nH]cc(C(=O)NC4CCCCC4)c(=O)c3c2)cc1`, the survival was active: 14%.

With `CC1=C(C(=O)Nc2ccc(C)cc2C)C(c2ccc(C(C)C)cc2)n2nc(C(F)(F)F)nc2N1` (stereo unspecified), the survival is inactive: 57%.

With `COc1ccc(-n2c(-c3ccc(Cl)cc3)cc3c2CC(C)(C)CC3=O)c(OC)c1`, the survival is active: 4%.

For `CCOC(=O)c1sc(NC(=O)c2nc(SC)ncc2Cl)c(C(=O)OCC)c1C`, the survival is inactive: 89%.

For `CCOCc1nnc(NS(=O)(=O)c2ccc(Cl)cc2)s1`, the survival is inactive: 99%.

Regarding `Cc1cccc(-n2cc(-c3ccccc3)nc2SCC(=O)Nc2ccccc2Cl)c1`, the survival is inactive: 115%.

With `Cc1ccc(C)c(NC(=O)C(C)N(c2ccccc2)S(C)(=O)=O)c1` (stereo unspecified), the survival is inactive: 139%.

Consider `Cc1oc2ncn(CC(C)C)c(=O)c2c1C(=O)Nc1ccc(Cl)cn1`, for which the survival was inactive: 86%.

Regarding `O=C(NCc1ccccc1Cl)C1CCCN(c2nc3ccccc3n3cccc23)C1` (stereo unspecified), the survival is active: 46%.

In the case of `Cc1ccc(C)c(S(=O)(=O)NCC(c2ccc(N(C)C)cc2)N2CCOCC2)c1` (stereo unspecified), the survival was inactive: 71%.
